Data: PubChem BioAssay AID1768 (National Center for Advancing Translational Sciences (NCATS), 2009)
Screen size: about 270,000 compounds; about 620 (0.23%) were called active. The shares of active, inactive and inconclusive entries below differ from those in the screen. Calls follow the shape of the dose curve; as a rule, active = well fitted inhibition curve with a large enough effect in the polarisation, with a control signal flat (not every such curve was filed as active); inconclusive = small, poorly fitted or top-dose-only effect, or effect the other way, or a change in a side signal; inactive = no such curve, though single readings can be large or run the other way; the % refers to the polarisation. Where the call is inconclusive, the potency comes from a doubtful curve fit. “Side channel” marks fits to a control or component signal instead of the main read-out.

Biological target: Menin (Homo sapiens) (UniProt O00255)
Sequence of UniProt O00255 (O00255 whole entry, looked up): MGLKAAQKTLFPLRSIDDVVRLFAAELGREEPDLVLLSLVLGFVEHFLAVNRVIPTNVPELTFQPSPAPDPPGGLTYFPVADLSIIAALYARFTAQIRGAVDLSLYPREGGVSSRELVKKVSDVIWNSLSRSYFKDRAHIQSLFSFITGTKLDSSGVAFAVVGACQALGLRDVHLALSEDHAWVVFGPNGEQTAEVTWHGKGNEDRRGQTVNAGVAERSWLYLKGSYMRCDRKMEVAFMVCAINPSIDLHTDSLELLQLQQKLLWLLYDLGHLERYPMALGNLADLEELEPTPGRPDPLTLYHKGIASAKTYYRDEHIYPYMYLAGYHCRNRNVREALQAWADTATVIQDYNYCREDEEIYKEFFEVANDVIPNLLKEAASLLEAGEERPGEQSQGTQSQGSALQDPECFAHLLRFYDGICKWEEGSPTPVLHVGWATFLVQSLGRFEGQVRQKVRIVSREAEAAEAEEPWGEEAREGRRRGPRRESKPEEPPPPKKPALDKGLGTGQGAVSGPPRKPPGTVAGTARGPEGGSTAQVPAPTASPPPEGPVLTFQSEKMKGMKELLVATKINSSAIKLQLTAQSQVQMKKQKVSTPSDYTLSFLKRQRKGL
Assay: qHTS Assay for Inhibitors Targeting the Menin-MLL Interaction in MLL Related Leukemias: Competition With Texas Red Labeled MLL-derived Mutant Peptide; as to FP activity change, negative = inhibition: % of control where 0% means no effect
Details: fluorescence polarization; FP activity change, negative = inhibition: at 61.6 µM (top of the series)
Potency is read from the fitted curve at half-maximal effect; tags tell the direction and shape of the fitted curve or compound fluorescence and quenching.

Question: `COc1ccc(N2C(=O)NC(=O)C2=O)cc1` was tested. Which Potency did it give?
Answer: inconclusive: 39.8 µM [inhibitor, partial curve]

Question: How did the Potency turn out when `O=C(Nc1ncn[nH]1)c1cc(S(=O)(=O)Nc2cccc(C(F)(F)F)c2)ccc1Cl` was run?
Answer: inconclusive: 39.8 µM [fluorescent, single point]

Question: For `O=C(CN1CCN(c2cccc(Cl)c2)CC1)N1CCCC1`, which Potency is on record?
Answer: inconclusive: 8.91 µM [inhibitor, full curve]

Question: How did the Potency turn out when `Cc1oc2nc(SCCCC(=O)NCCO)nc(N)c2c1C` was run?
Answer: inactive

Question: For `Cc1c(C(=O)N/N=C/c2ccccc2)sc(=S)n1C`, which Potency is on record?
Answer: inconclusive: 15.8 µM [quencher, side channel, partial curve]

Question: For `Cc1[nH]c2ccc(C(=O)O)cc2c1C`, which Potency is on record?
Answer: inactive

Question: Which Potency does the source give for `c1ccc(CN2CCC(N=C3NN=C(c4ccc5c(c4)OCCO5)CS3)CC2)cc1` here?
Answer: inconclusive: 12.6 µM [fluorescent, side channel, partial curve]

Question: How did the Potency turn out when `O=C(N/N=C/c1cn[nH]c1-c1ccc(Cl)cc1)c1ccc([N+](=O)[O-])cc1` was run?
Answer: inconclusive: 28.2 µM [quencher, side channel, partial curve]

Question: How did the Potency turn out when `Cc1cc2n(n1)C(c1sccc1C)Nc1c(C)cccc1-2` (stereo not drawn) was run?
Answer: inactive

Question: `CCNc1ncc2nc(CCc3ccccc3)c(=O)n(Cc3ccc(F)cc3)c2n1` was tested. Which Potency did it give?
Answer: inactive

Question: `CCOc1ccccc1C(=O)NCC(=O)OCC(=O)N1C(C)CCCC1C` (stereo not drawn) was tested. Which Potency did it give?
Answer: inconclusive: 25.1 µM [inhibitor, partial curve, poor fit]

Question: `COc1ccccc1CC(=O)N1CCCc2cc(C)ccc21` was tested. Which Potency did it give?
Answer: inconclusive: 28.2 µM [inhibitor, single point]

Question: How did the Potency turn out when `CC(C(=O)Nc1cc([N+](=O)[O-])ccc1Cl)N1CCN(c2ccc(O)cc2)CC1` (stereo not drawn) was run?
Answer: inconclusive: 31.6 µM [quencher, side channel, single point]

Question: Which Potency does the source give for `CCOC(=O)C1(Cc2ccccc2)CCN(CC2CC=CCC2)CC1` (stereo not drawn) here?
Answer: inconclusive: 12.6 µM [fluorescent, side channel, partial curve, poor fit]

Question: Which Potency does the source give for `CCOc1ccc(N2CC(C(=O)N3CC(C)OC(C)C3)CC2=O)cc1` (stereo not drawn) here?
Answer: inconclusive: 39.8 µM [inhibitor, single point]

Question: For `CC1CC(C)CN(CCCNC(=O)c2cc3c(=O)[nH]c4ccccc4c3n2C)C1` (stereo not drawn), which Potency is on record?
Answer: inactive

Question: With `Oc1ccc(/C=N/Nc2nc(-c3ccc(Cl)cc3)cc(C(F)(F)F)n2)cc1` as the compound, how does the Potency read?
Answer: inconclusive: 28.2 µM [quencher, side channel, partial curve]

Question: How did the Potency turn out when `COc1cccc(CN(C)Cc2cc(=O)oc3c(C)c(C)ccc23)c1` was run?
Answer: inconclusive: 12.6 µM [fluorescent, side channel, partial curve]

Question: For `COc1ccccc1S(=O)(=O)Nc1ccc(-c2nnc3n2CCCCC3)cc1`, which Potency is on record?
Answer: inconclusive: 25.1 µM [inhibitor, partial curve, poor fit]

Question: For `Cc1ccc2nc(Nc3ccc(C)c(Cl)c3)c3nncn3c2c1`, which Potency is on record?
Answer: inconclusive: 12.6 µM [quencher, side channel, partial curve]

Question: Which Potency does the source give for `Cc1ccc(CNC(=O)Nc2ccccc2)cc1` here?
Answer: inconclusive: 28.2 µM [quencher, side channel, single point]

Question: For `Cc1ccc(OC(C)C(=O)N2CCCc3ccccc32)cc1` (stereo not drawn), which Potency is on record?
Answer: inconclusive: 31.6 µM [fluorescent, side channel, single point]

Question: Which Potency does the source give for `CCOc1ccc(S(=O)(=O)NCc2ccc(C)cc2)c2cccnc12` here?
Answer: inactive

Question: Which Potency does the source give for `COc1ccc(C2C(C(=O)Nc3ccccc3)=C(C)Nc3nc(CCCO)nn32)cc1` (stereo not drawn) here?
Answer: inconclusive: 7.08 µM [fluorescent, side channel, single point]

Question: How did the Potency turn out when `O=C(CSCc1ccccc1)Nc1cccc(C(=O)Nc2ccccc2C(=O)O)c1` was run?
Answer: inconclusive: 28.2 µM [quencher, side channel, partial curve]

Question: `Cc1ccc(-n2c(-c3ccc(Br)cc3)c[n+]3c2CCc2ccc4cccnc4c2-3)cc1` was tested. Which Potency did it give?
Answer: inconclusive: 1.41 µM [fluorescent, side channel, full curve, poor fit]

Question: How did the Potency turn out when `C(=N\Nc1nc(Nc2ccccc2)nc(N2CCCCC2)n1)/c1ccco1` was run?
Answer: inconclusive: 10 µM [quencher, side channel, partial curve]

Question: How did the Potency turn out when `CN(C(=O)c1ccccc1C(=O)OCC(=O)NC(=O)NC(C)(C)C)C1CCCCC1` was run?
Answer: inconclusive: 10 µM [fluorescent, side channel, partial curve]

Question: Which Potency does the source give for `O=C(c1cnc(N2CCN(c3ncccn3)CC2)c2ccccc12)N1CCN(c2ncccn2)CC1` here?
Answer: inconclusive: 12.6 µM [fluorescent, side channel, partial curve]

Question: Which Potency does the source give for `Cc1ccc2cc3c(N)c4c(C)ccc(C)c4nc3nc2c1` here?
Answer: inactive

Question: How did the Potency turn out when `COc1ccc(/C=C2\SC(=S)N(CCC(=O)NCCc3ccc(O)cc3)C2=O)cc1` was run?
Answer: inconclusive: 39.8 µM [fluorescent, side channel, single point]

Question: Which Potency does the source give for `C[C@@H]1C(c2ccccc2)=NN(c2ccccc2)[C@H]1C(=O)N1CCOC1=O` here?
Answer: inconclusive: 35.5 µM [quencher, side channel, partial curve]

Question: How did the FP activity change, negative = inhibition turn out when `Cc1ccc(S(=O)(=O)n2c3ccccc3c3nnc(C(=O)c4ccccc4)nc32)cc1` was run?
Answer: inactive: 13.8% [at 11.7 µM]

Question: How did the Potency turn out when `CC(Sc1nc(C(C)(C)C)cc(-c2ccccc2)c1C#N)C(=O)Nc1ccccc1` (stereo not drawn) was run?
Answer: inconclusive: 17.8 µM [inhibitor, single point]

Question: With `CC(=O)OC1CC[C@@]2(C)C(CCC3C2CC(=O)[C@@]2(C)C3CC3CC(C)=CC(=O)C32)C1` (stereo partly drawn) as the compound, how does the Potency read?
Answer: inconclusive: 39.8 µM [fluorescent, side channel, single point]

Question: For `CC1CC(=O)c2cnc(Nc3ccccc3)nc2C1` (stereo not drawn), which Potency is on record?
Answer: inactive

Question: For `Nc1cc(Cl)nc(N/N=C/c2c(O)ccc3ccccc23)n1`, which Potency is on record?
Answer: inconclusive: 11.2 µM [quencher, side channel, partial curve]

Question: For `COc1ccc(OC)c(-c2csc(NC(=O)Cc3ccccc3OC)n2)c1`, which Potency is on record?
Answer: inconclusive: 25.1 µM [quencher, side channel, single point]
